# This is one part of the list.
# Tested on: PfAP2-HC AP2 domain (GST-tagged)
# Experiment: gcPBM binding intensity (ln(normalized median fluorescence intensity)); higher = stronger DNA binding
# Summary of the method: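 GST-tagged P. falciparum DNA-binding domains produced in E. coli were incubated for 1 h on an Agilent 4 × 180k array of primer-extended double-stranded 36-bp intergenic genomic probes with negative controls. Binding intensity is the highest Masliner-normalised natural-log median intensity across replicate spots of either probe orientation, with bound protein detected by Alexa488 anti-GST antibody at 488 nm.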
row,Sequence,gcPBM binding intensity (ln)
1,TATTTCAAACTGTTCTCACACACGAAATTAGAAATG [CACACA_site611],9.74
2,ATAAAATGATGTATCTGTGTATGTTTATTTTGTTTT [XGTACX_negctrl_site367],10
3,TAAAATAAAAAAGTAGTACACACTTCACGATATTTT [CACACA_site3896],9.91
4,TTAAAAGTAAGCAAAGTGCATATAACAAAAGTAAAG,9.86
5,AATATAAAACTTTAGAGTACTTATCATTAAAATATA [XGTACX_site4509],9.31
6,ATTAATAATGAAAAAAAACACACGGTACATTCAAAG [CACACA_site1302],10
7,TATATAAGAACTTTTACACACATGAAAATGTAGATA [CACACA_site7711],9.67
8,TATATATATATATATACACACATACAGATATATATT [CACACA_site4629],9.88
9,ATATACACATATACATGTACAAATATATATACACAT [XGTACX_site2986],9.88
10,TTACTATTATTATTTTTTATTTTTATTTTATTTATT [TGCATGCA_negctrl_site269],9.93
11,CACTAAAAGAAACACACACACACACCCATATATATA [CACACA_site4151],11
12,TTGTAAGAAAGACACACACACACATATAAATATGTA [CACACA_site6516],10.8
13,TATTTAAAATAATGTGCAAAAGAATAAATAAATAAA [TGCATGCA_negctrl_site194],9.74
14,TTCATTTTCATATATTGTACAAAATTTTATAAGGTT [XGTACX_site4522],9.58
15,ATATATATATATAATACACACTAAAGTAACATAATA [CACACA_site5580],9.85
16,TGTATATAATCGAGTGCACACACAAAAAAAAAGTGA [CACACA_site8417],10.3
17,AAAAAAAAAAAAAAAACACACACATATATATATATA [CACACA_site8571],9.9
18,TTCATGTCCTATTAATGTACTCTACACACATATAAG [XGTACX_site899],9.89
19,TTTATTTATTTTTGTTGTACACTTGTATATATTATT [XGTACX_site6486],10
20,ATTTTATATACACTTTGTACTTATTTTATTCTTCTT [XGTACX_site4200],9.93
21,TACGCAACCAAAAGTTGTACTAATTTTTTTTTTTTG [XGTACX_site7432],9.55
22,ATATATTTTATACATACACACATATAAATATTTTTT [CACACA_site7780],9.83
23,GGAACAAATAATATCACACATATATATATATATATA [CACACA_site5670],9.86

row,Sequence,gcPBM binding intensity (ln)
1,TAATAAATATATTGAAGTACTTATAAAAAGCAATAT [XGTACX_site6262],9.8
2,TACGGGAAAGATAAGAAACACACGGAAAATTAGACG [CACACA_site1661],9.99
3,TTTTTTAATACATATGCATGTTCAAGTACGAAAAAA [TGCATGCA_site641],9.28
4,TATTAAACTTGACACACACACACACGCATATATAAA [CACACA_site6496],10.6
5,AATAATGTTATAAATTGTACGTGTATTATTCATTAC [XGTACX_site894],9.8
6,TAATGAGGAAATACAGCACACGTTATTACACTTTTC [CACACA_site5399],9.73
7,AAATTGGTTCATCAATGTACATGTAAAATAAATCAA [XGTACX_site4795],9.7
8,TATATTTATCCATACAAGAAAAAAAAAAAAAAAATA [CACACA_negctrl_site1328],9.44
9,AAAAAAAAAAATATATTAAAATAAAAAATATTAACA [GTGCAC_negctrl_site13],9.45
10,TACACCCACCCACATACACACACATACACATATATA [CACACA_site8503],10.8
11,CCACTTAAAATAAAAAGTACATACAGGTGTTATACA [XGTACX_site8124],9.49
12,TTTAAATAAAATATTACACACTTAGAAAGATATATA [CACACA_site7684],9.57
13,AGCATATTATTTTAGGTGCACTTGAAATGTGTTAAC,9.68
14,TTTTTTTTTTATTGTACATGCAAAAAATTCCACACA [TGCATGCA_site279],9.53
15,CAAATAAAAACAAAACGTACGAATAAATTATTGTTA [XGTACX_site5136],9.49
16,TATTTGATCTAAAGAGCATGCAAAAACGAACAAGAT [TGCATGCA_site136],9.81
17,ATATCGTTATTTTTATGTACTAAAATATTTAATTAT [XGTACX_site3516],9.72
18,CACATATAAATATTAACACACATAATGAATTATATA [CACACA_site2741],9.79
19,ATATATAAAAATTAGGTGCATTAAATTAAAATATAT,9.64
20,ACACAAATAAATATAACATATATATTATATTATATT [CACACA_negctrl_site710],9.73
21,TTTATATAAATTTTTTGTACACAAGTAAAAACGCGT [XGTACX_site2459],9.36
22,TCAATATTAAATTATTGTACATGTATGTATATATAT [XGTACX_site3861],9.58
23,TTTTTTTTTTTTTTTTTACACACTTTATTCAAACAA [CACACA_site9360],9.32

row,Sequence,gcPBM binding intensity (ln)
1,ATAAAATATATATATATAAAAATAAATACATAAATA [GTGCAC_negctrl_site157],9.82
2,CATATACTTCTGTGCACACGAATATTTTTCTTCTTC [CACACA_site1407],9.97
3,TGTTGTCCTAATTCTACACACAATGGTTTATTAAAA [CACACA_site2648],9.97
4,TTTTAACGTAAAACATTGATGATATAAAAAATAGGA [GTGCAC_negctrl_site540],9.35
5,TATACTCATATTTTTACACACATATTTTTTCATATA [CACACA_site5412],9.92
6,TTTTTTTTTTTTTTTTTTTTCACATGTGTGGAAAAA [GTGCAC_negctrl_site352],8.88
7,AATTTAAAATATATAGTACACACGTGAACACAAATA [CACACA_site416],9.78
8,TTAAAATATACATAAACACACACAAAACGTTTAAGA [CACACA_site8267],10.4
9,AGGATATATAAGTATACACACATATTTATATTTATA [CACACA_site6239],9.75
10,TAACAATAACTTTATACACACATAATATATATATAT [CACACA_site3543],9.81
11,TGTATTTATAATAAAACACACATTTTTAATGTGCTC [CACACA_site4908],9.74
12,AAAAAAAAAAAAAACACACACACACCCATAAATATA [CACACA_site151],11.2
13,TTTGTGTTTATAAATTGTACAAAGGTGCAAGAAGAA [XGTACX_site2159],9.8
14,AAAAAAAAAAAACACACACACAATAGTATATAAATC [CACACA_site956],10.5
15,ATATGATCATAAAACACACACACAAAAAAAAAAAAA [CACACA_site1806],10.8
16,TTCAAGCCCTTCTGCTTACACACAGTAATTATTGTG [CACACA_site2952],10
17,TATTTTTATTATATGGTGCATATATACATACATATA,9.67
18,AAGTGCATATTATTCACACATAATAATTGTATACCT [CACACA_site5965],9.74
19,TGTAAATTATAACGTGCACACATATTTAAAATGAAA [CACACA_site8915],9.77
20,ATATAGAAAATGCATACACACTTTATAAATATATTT [CACACA_site6553],9.82
21,AGATATTTATTGAGTGCATGTTATAAAGGGAAAAAA [TGCATGCA_site88],9.56
22,ATCCACTTTTTGAAGACACACACAAAAAAAAAAAAA [CACACA_site8818],9.73
23,AATTAGATGGATAAATGTACATAATGTGAATATATT [XGTACX_site86],9.88

row,Sequence,gcPBM binding intensity (ln)
1,TAAAAATAATTTGCATGTACATAGGTCGATGTATTT [XGTACX_site1357],9.67
2,ATTATATTTTGTAAATGTACATTTATATATTTTGTA [XGTACX_site1226],9.74
3,AAAAAAAAAAAAAAAGCATGCACATATTATTTTTTT [TGCATGCA_site416],9.51
4,ATTCATAAACGTGTGTTAATATGAATTTAAACATAA [XGTACX_negctrl_site213],9.64
5,ATATAAATAAAATATACACACATAAATATAACGACA [CACACA_site1637],10
6,ACGAAGATTTATCTTGCACACGCAAAAAAAAAAAAA [CACACA_site7933],9.58
7,AACATTTCCTTTCTGTGTACATATAAACCCATCTAT [XGTACX_site2071],9.74
8,TTTAAAAAAAAAAATACACACATAAAAATTTTCAAA [CACACA_site703],9.64
9,TTAATAATTAATTATAGTACACATTTATATTAATAA [XGTACX_site190],9.48
10,TTATTTAAAAAATTTTTAAATATACAAAAAAAAAAA [TGCATGCA_negctrl_site464],9.33
11,ATTATAAGAAGGGGGGGTACATAAATATAAATGTAT [XGTACX_site5624],10.5
12,TTTAATTTTCGGTGTGCACACAACTATGAGTTTTTA [CACACA_site3034],10.1
13,TACTGGTATCGATATAGTACATATAATATTATGTTA [XGTACX_site7490],9.69
14,AATTGAATAAATTAAACATGCACAGATGTTCTATTT [TGCATGCA_site692],9.64
15,AGGATTAAAAAAACATGTACGTATTTAAATATATTT [XGTACX_site8774],9.75
16,TTTTTTTTTTTTTTTTTTTTTTTTTTTTTTTTTTTT [CACACA_negctrl_site104],9.15
17,GTATAAAAAAATAAAAGTACAAAAAAAAAAGACTGA [XGTACX_site186],9.98
18,AAATAAAAAATATGAACACACATATATAACAAAATA [CACACA_site261],10.4
19,TTACAAATGTAGAAAAGTACATATAATAATAATTTA [XGTACX_site3044],9.57
20,ATGGATAATAATAAGTGTACACATATATTTAGAAGA [XGTACX_site244],9.97
